# Screen size: about 110,000 compounds; about 230 (0.21%) showed an effect of 50% or more. This is one part of the list.
# Target: DPAP1 (Plasmodium falciparum, UniProt Q8IIJ9)
# Assay: primary screen, percent inhibition; read by cleavage of a fluorogenic dipeptide substrate; higher = more effect of the substance
# Set-up: species or system P. falciparum D10 trophozoite lysates; single well
# 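Note: 30 min substrate incubation versus DMSO and 10 µM JCP410 controls.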
# DPAP1, sequence (Q8IIJ9 whole entry, looked up): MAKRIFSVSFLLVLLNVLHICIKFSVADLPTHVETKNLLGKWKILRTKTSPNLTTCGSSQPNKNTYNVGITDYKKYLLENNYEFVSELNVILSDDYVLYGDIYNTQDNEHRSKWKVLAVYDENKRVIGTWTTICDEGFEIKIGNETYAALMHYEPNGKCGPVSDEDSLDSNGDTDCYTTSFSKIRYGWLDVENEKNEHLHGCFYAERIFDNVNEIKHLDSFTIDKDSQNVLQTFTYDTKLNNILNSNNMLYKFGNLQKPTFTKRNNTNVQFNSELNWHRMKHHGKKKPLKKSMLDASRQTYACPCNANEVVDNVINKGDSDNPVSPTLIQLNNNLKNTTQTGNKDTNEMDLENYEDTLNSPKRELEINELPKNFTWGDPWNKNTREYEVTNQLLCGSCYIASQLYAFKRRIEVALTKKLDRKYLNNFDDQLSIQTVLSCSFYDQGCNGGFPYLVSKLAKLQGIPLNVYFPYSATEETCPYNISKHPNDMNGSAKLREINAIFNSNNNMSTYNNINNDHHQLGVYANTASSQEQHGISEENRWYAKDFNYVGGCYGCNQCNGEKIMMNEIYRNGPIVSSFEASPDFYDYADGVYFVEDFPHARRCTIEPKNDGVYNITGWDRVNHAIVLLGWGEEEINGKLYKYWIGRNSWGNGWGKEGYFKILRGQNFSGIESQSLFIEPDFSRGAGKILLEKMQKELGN
row,SMILES,% Inhibition @ 10 uM
1,Cc1ccc(C(=O)C2CN3CCC2CC3)cc1 (stereo not shown),3.74%
2,COc1ccc(NC(=O)CSC2=N/C(=C/c3cccc(F)c3)C(=O)N2C)cc1,5.83%
3,O=C(O)CN(CCCc1ccccc1)CC(=O)O,2.81%
4,COc1ccc(Cl)cc1C(=O)Nc1c(F)cccc1F,-0.469%
5,CCOc1cc(C(=O)Nc2nc3c(s2)CCCC3)cc(OCC)c1OCC,0.583%
6,O=C(CSCC(=O)N1CCCC1)Nc1ccc(F)cc1,2.76%
7,Cc1ccc(S(=O)(=O)n2cnc(-c3ccccc3)c2-c2ccccc2)cc1,-2.91%
8,Cc1cc(C)c(NC(=O)CN2CCN(Cc3ccccc3)CC2)c(C)c1,3.47%
9,COc1cccc(N2CCN(C3CC(=O)N(c4cccc(C(F)(F)F)c4)C3=O)CC2)c1 (stereo not shown),3.17%
10,CSc1nn(Cc2ccc(F)cc2)c(N)c1S(=O)(=O)c1ccccc1,0.0575%
11,COc1ccc(N2CCN(C(=O)CN(c3cccc(C)c3)S(C)(=O)=O)CC2)cc1,9.03%
12,CCc1nn(CC(=O)NC(C)c2ccc3c(c2)OCCO3)c(=O)c2cc3sccc3n12 (stereo not shown),-1.58%
13,COc1cc(C2Cc3c(C(=O)O)c(=O)cc(C)n3-c3ccccc3S2)ccc1O (stereo not shown),2.33%
14,COc1cccc(C2NC(=O)NC(C)=C2C(=O)Nc2cccc(Cl)c2)c1 (stereo not shown),1.27%
15,Cc1cc2oc(C(=O)NCc3ccccc3)cc(=O)c2cc1C,-3.24%
16,N#Cc1c(O)nc(S)nc1-c1ccccc1O,6.4%
17,CC(C)(O)C#Cc1ccc(C(=O)N2CCN(c3ccccc3Cl)CC2)cc1,0.392%
18,CC(C)OCCCNC(=O)C1CCCN(S(C)(=O)=O)C1 (stereo not shown),2.18%
19,CCO/C(O)=C1/C(C)=NC2=C(C(=O)CCC2)C1c1ccc(N(CC)CC)cc1 (stereo not shown),-1.75%
20,CCOC(=O)c1c(-c2ccc(OC)cc2)nc2nonc2c1N,2.99%
21,COc1ccc(C2CC3=NC(C)=C(C(=O)OC(C)C)C(c4ccc(OC)c(OC)c4)C3=C(O)C2)cc1 (stereo not shown),19.4%
22,COc1ccc(/C=C2\SC(=O)N(CC(=O)Nc3ccc(F)cc3)C2=O)cc1O,4.57%

row,SMILES,% Inhibition @ 10 uM
1,CC1CCc2c(sc(NC(=O)CN3CCN(C)CC3)c2C#N)C1 (stereo not shown),3.96%
2,Cc1ccccc1Nc1nc(-c2ccc(Cl)cc2)cs1,1.72%
3,Cc1ccc(C=C2C(=O)c3ccccc3C2=O)o1,-2.18%
4,CCCCOc1ccc(C(=O)N(Cc2sccc2C)C2CCS(=O)(=O)C2)cc1 (stereo not shown),-1.11%
5,CC(C)CC(C(=O)NCC#N)c1cccc(-c2ccc(OC3CCN(C(=O)OC(C)(C)C)CC3)cc2)c1 (stereo not shown),-1.61%
6,Cc1ccc(C2CC(=O)c3cnc(NCc4ccccc4)nc3C2)cc1 (stereo not shown),-1.92%
7,CCOc1ccccc1C(=O)N(Cc1cccc(OC)c1)C1CCS(=O)(=O)C1 (stereo not shown),-1.35%
8,O=C(CSc1n[nH]c(-c2ccccc2)n1)Nc1ccc(Br)cn1,0.726%
9,CC1C2CC(CC2c2ccccc2O)C1(C)C (stereo not shown),4.11%
10,COc1ccc(CCNC(=O)CCc2nc(O)c3c4c(sc3n2)CCCC4)cc1OC,-0.228%
11,CN(C)CCN(C)Cc1ccccc1,1.14%
12,Cc1c(C(c2cc3c(cc2Br)OCO3)c2c(C)n(C)n(-c3ccccc3)c2=O)c(=O)n(-c2ccccc2)n1C,-6.44%
13,O=C(Nc1ccc(CN2CCOCC2)cc1)c1cc(Br)ccc1Cl,-0.173%
14,Cc1cc(C)n(-c2nnc3c4ccccc4n(Cc4ccccc4)c3n2)n1,-0.693%
15,Cc1nc2c(c(C)c1CCC(=O)N1CCCC(c3ccccc3)C1)c(=O)n(C)c(=O)n2C (stereo not shown),3.75%
16,O=C(NCc1cccnc1)c1ccc(Cl)cc1,5.09%
17,Cc1cc(OCc2nc(-c3ccc(OCC(N)=O)cc3)no2)cc(C)c1Cl,-0.828%
18,O=C1c2ccccc2C(=O)N1CCCN1CCN(CCCN2C(=O)c3ccccc3C2=O)CC1,2.94%
19,c1ccc(CSc2ncnc3[nH]cnc23)cc1,-3.06%
20,CCOc1cc(/C=N/n2c(C)nnc2-n2nc(C)cc2C)ccc1OC,4.18%
21,CC(=O)c1cccc(/N=c2\scc(-c3ccc(S(=O)(=O)N4CCOCC4)cc3)n2CCO)c1,-10.5%
22,O=C(NC1CCN(Cc2ccccc2)CC1)c1ccc(CS(=O)Cc2cccc(Cl)c2)o1 (stereo not shown),0.124%

row,SMILES,% Inhibition @ 10 uM
1,CC(C)Nc1nc(-c2ccccc2O)nc2ccccc12,0.247%
2,Cc1nc(SCC(=O)O)c(C#N)c(C)c1C,72.9%
3,CSc1nc2c(c(=O)n1-c1ccc(C)cc1)C1(CCCCC1)Cc1ccccc1-2,3.01%
4,COc1ccc(NC2=C(Cl)C(=O)N(c3ccc(C)cc3C)C2=O)cc1,-0.864%
5,CNC(=O)c1cccnc1Nc1ccc(Cl)cc1,3.24%
6,CC(Cc1cccc(C(F)(F)F)c1)N[C@H]1CCCCNC1=O (stereo partly shown),1.38%
7,Cc1cc(C)c2nc3s/c(=C\c4ccccc4)c(=O)n3c2c1,-1.66%
8,CC(Oc1ccccc1)C(=O)Nc1ccccc1Br (stereo not shown),0.843%
9,Cc1nc2c3ccccc3n3c(CCCC(=O)NCC4CCCO4)nnc3n2n1 (stereo not shown),3.59%
10,Cn1c(=O)c2c(-c3ccc(C(C)(C)C)cc3)n(C(C)(C)C)cc2n(C)c1=O,-4.95%
11,COC(=O)c1sccc1NC(=O)Cn1ncc2c1-c1cc(C)ccc1OC2,0.851%
12,CCOc1ccc2nc(N3CCC(C(=O)NCCN(CC)CC)CC3)sc2c1,-3.35%
13,O=S(=O)(Nc1ncccc1O)c1ccc(Cl)cc1,3.05%
14,O=S(=O)(c1cccc(Cl)c1)c1nnn2c1nc(NCCc1ccccc1)c1sccc12,-2.55%
15,COc1cc(NC(=O)c2cccs2)c(OC)cc1Cl,-12.2%
16,Cc1cc(C)c(-c2c(NC3CCCc4ccccc43)c(=O)c2=O)cc1C (stereo not shown),7.39%
17,COc1ccc(C)cc1NC(=O)c1ccc(OC(F)F)c(OC)c1,2.4%
18,Brc1csc(CN2CCN(Cc3ccccc3)CC2)c1,-3.56%
19,CC(NC(=O)c1csc2c1CCCC2)c1ccccc1 (stereo not shown),-6.95%
20,CCN(CC)C(=O)C(=O)c1cn(CC(=O)NCCc2ccccc2)c2ccccc12,2.77%

# — article PMC6919601, “Identification of Plasmodium dipeptidyl aminopeptidase allosteric inhibitors by high throughput screening” (PLoS ONE, 2019)
